Laboratory results reported in US20230131339A1, “EPI-X4 BASED PEPTIDES AND DERIVATIVES THEREOF” (Universitaet Ulm, priority 2020, published 2023).
pIC50: −log10 of the molar value. Read-outs that look alike come from different tables or passages of the source. For some of these results: Not every detail of the peptide structures is certain; ends, links or a residue may be inferred. For some of these results: At least one structure is not confirmed: it was looked up by name or label, or the drawing left a doubt. Where a SMILES comes first, the peptide text is derived from it. Side-chain parts run from the residue outwards. [ ]: non-standard residue; d: D form. The star is where a group is joined. DOTA = O=C(O)CN1CCN(CC(=O)O)CCN(CC(=O)*)CCN(CC(=O)O)CC1; Palmitoyl = CCCCCCCCCCCCCCCC(=O)*

How the values were obtained:
[1] = biological target: T1, CXCR4 (Homo sapiens, UniProt P61073); assay: 12G5-assay IC50 (nM)
T1 construct: endogenous in cells; host or cells: SupT1 cells
T1 sequence (P61073 whole entry, looked up): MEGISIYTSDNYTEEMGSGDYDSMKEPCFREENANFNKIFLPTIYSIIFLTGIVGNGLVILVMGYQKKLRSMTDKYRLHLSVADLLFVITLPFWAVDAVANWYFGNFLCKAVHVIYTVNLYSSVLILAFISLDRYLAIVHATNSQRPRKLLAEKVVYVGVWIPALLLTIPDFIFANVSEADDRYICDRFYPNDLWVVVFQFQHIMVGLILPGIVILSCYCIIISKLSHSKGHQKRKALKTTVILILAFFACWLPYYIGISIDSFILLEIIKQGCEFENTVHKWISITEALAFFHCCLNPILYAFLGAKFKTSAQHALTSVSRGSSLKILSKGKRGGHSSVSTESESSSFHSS
Text: (§1) Table printed on a drawing sheet, Figure 2
Title: B Truncated Palmitoylated-JM#21 N-terminally modified
Head of the field: 12G5-assay IC50 (nM)
First copying reader's note: The table doubles as the legend of the antibody competition plot beside it; the plot symbols before the names are not copied.
Where the first naming reader finds the target: passage: compete with an antibody that specifically binds to the binding pocket (ECL2) of CXCR4

[2] = system: GHOST-CXCR4+ cells; assay: Cellular uptake and distribution in GHOST-CXCR4+ cells; assay type: cell-based; conditions: 1 nM, 37° C., 60 min
[3] = Lipophilicity, shake-flask method (n-octanol/PBS pH 7.4); assay type: physicochemical
Description: The hydrophilic/lipophilic character of the ^177Lu/^68Ga-labeled conjugates was determined by the “shake-flask” method. To a pre-saturated solution containing 500 μL of n-octanol and 500 μL of phosphate-buffered saline (PBS) at pH 7.4, 10 μL of 1 picomol ^177Lu/^68Ga-labeled conjugates was added. The solutions were vortexed for 1 h to reach equilibrium and then centrifuged (3000 rpm) for 10 min. Hundred μl of the sample was removed from each phase and measured in a γ-counter. The partition coefficient was calculated as the average of the logarithmic values (n=3) of the ratio between the radioactivity in the organic and the PBS phase. Results are means±standard deviation from a minimum of two separate experiments. ^177Lu/^68Ga-labeled Pentixather, which is a known CXCR4-directed endoradiotherapeutic agent, is used as reference molecule.

[4] = biological target: T1, CXCR4; assay: 12G5-assay | IC50 (nM)
Text: as §1
Title: A Truncated Palmitoylated-JM#21
Head of the field: 12G5-assay | IC50 (nM)
First copying reader's note: The table is the legend of the plot in panel A; the first column also carries the plot symbols, which are not copied.
Where the first naming reader finds the target: passage: Values determined by the competition assay represent the potency of a compound to compete with an antibody that specifically binds to the binding pocket (ECL2) of CXCR4

[5] = system: Jurkat cells; assay: Cellular uptake in Jurkat cells; assay type: cell-based; conditions: 1 nM, 37° C.
[6] = Stability of radiolabeled conjugates in buffer (radiochemical purity over time); assay type: physicochemical; conditions: NH4-acetate buffer pH 5.2, ethanol, room temperature
Description: The stability of ^177Lu/^68Ga-labeled DOTA-conjugated peptides in ammonium acetate buffer (0.4 M, pH 5.2) and sodium acetate buffer (0.2 M, pH 4-4.5) was assessed by determining the radiochemical purity (RCP) of each radiolabeled conjugate at different time points (0, 1, 2, 4, and 24 h for ^177Lu-complexes and at 0, 1 and 2 h for ^68Ga-complexes) at room temperature. For this, an aliquot of labeling solution was stored at room temperature. RP-HPLC injections were consecutively performed at the desired time points.
Radiolysis-induced instability of [^177Lu]Lu-labeled DOTA-conjugated peptides over time was tracked by determining the radiochemical purity (Table 3). Results are means±standard deviation from a minimum of two separate experiments.

## CCCCCCCCCCCCCCCC(=O)N[C@@H](CCC(=O)O)C(=O)NCCCC[C@H](NC(=O)[C@H](CCCNC(=N)N)NC(=O)[C@H](CO)NC(=O)[C@H](Cc1c[nH]c2ccccc12)NC(=O)[C@H](CCCNC(=N)N)NC(=O)[C@H](CCSC)NC(=O)[C@H](N)CC(C)C)C(N)=O [JM#21 408-414 PG7 (d-LM...) JM#194, (d-L)MRWSR(K-Glu-Pal)-NH2] (H-[dL]MRWSRK([Glu-Palmitoyl])-NH2; N-terminus assumed)
[1]
  pIC50: 8.30

## CC[C@@H](C)[C@@H](N)C(=O)N[C@@H](CC(C)C)C(=O)N[C@@H](CCCNC(=N)N)C(=O)N[C@@H](Cc1c[nH]c2ccccc12)C(=O)N[C@@H](CO)C(=O)N[C@@H](CCCNC(=N)N)C(=O)N[C@@H](CCCCN)C(=O)N[C@@H](CCCCNC(=O)CN1CCN(CC(=O)O)CCN(CC(=O)O)CCN(CC(=O)O)CC1)C(N)=O [[^68Ga]Ga-DOTA-K-JM#173] [metal not drawn] (H-[dI]LRWSRKK(DOTA)-NH2)
[2]
  bound to the cell membrane (percentage of the applied radioactivity): 8.25±0.5%
  internalized (percentage of the applied radioactivity): 2.82±0.3%
  overall cellular uptake (in words): higher cellular uptake when compared with [^68Ga]Ga-Pentixather
[3]
  log DO/PBS pH7.4: −2.67 ± 0.36
[3]; listed as [^68Ga]Ga-DOTA-K-JM #173
  log DO/PBS pH7.4: −2.67±0.36

## CCCCCCCCCCCCCCCC(=O)N[C@@H](CCC(=O)O)C(=O)NCCCC[C@H](NC(=O)[C@H](CCCCN)NC(=O)[C@H](CCCNC(=N)N)NC(=O)[C@H](CO)NC(=O)[C@H](Cc1c[nH]c2ccccc12)NC(=O)[C@H](CCCNC(=N)N)NC(=O)[C@H](CC(C)C)NC(=O)[C@H](N)CCSC)C(N)=O [JM#21408-414 K-PG8 (d-ML...) JM#197, (d-M)LRWSRK(K-Glu-Pal)-NH2] (H-[dM]LRWSRKK([Glu-Palmitoyl])-NH2; N-terminus assumed)
[1]
  pIC50: 8.30

## CCCCCCCCCCCCCCCC(=O)N[C@@H](CCC(=O)O)C(=O)NCCCC[C@H](NC(=O)[C@H](CCCCN)NC(=O)[C@H](CCCNC(=N)N)NC(=O)[C@H](CO)NC(=O)[C@H](Cc1c[nH]c2ccccc12)NC(=O)[C@H](CCCNC(=N)N)NC(=O)[C@H](CCSC)NC(=O)[C@H](N)CC(C)C)C(N)=O [JM#21 408-414 K-PG7 (d-LM...) JM#195, (d-L)MRWSRK(K-Glu-Pal)-NH2] (H-[dL]MRWSRKK([Glu-Palmitoyl])-NH2; N-terminus assumed)
[1]
  pIC50: 8.52

## CCCCCCCCCCCCCCCC(=O)N[C@@H](CCC(=O)O)C(=O)NCCCC[C@H](NC(=O)[C@H](CC(C)C)NC(=O)[C@H](CCCCN)NC(=O)[C@H](CCCNC(=N)N)NC(=O)[C@H](CO)NC(=O)[C@H](Cc1c[nH]c2ccccc12)NC(=O)[C@H](CCCNC(=N)N)NC(=O)[C@H](CC(C)C)NC(=O)[C@@H](N)[C@@H](C)CC)C(N)=O [JM#21 408-415 K-PG9 (JM#193)] (H-ILRWSRKLK([Glu-Palmitoyl])-NH2; N-terminus assumed)
[4]
  pIC50: 8.52

## CCCCCCCCCCCCCCCC(=O)N[C@@H](CCC(=O)O)C(=O)NCCCC[C@H](NC(=O)[C@H](CCCCN)NC(=O)[C@H](CCCNC(=N)N)NC(=O)[C@H](CO)NC(=O)[C@H](Cc1c[nH]c2ccccc12)NC(=O)[C@H](CCCNC(=N)N)NC(=O)[C@H](CC(C)C)NC(=O)[C@@H](N)[C@@H](C)CC)C(N)=O [JM#21 408-414 K-PG8 (JM#191), ILRWSRK(K-Glu-Pal)-NH2] (H-ILRWSRKK([Glu-Palmitoyl])-NH2; N-terminus assumed)
[4]
  pIC50: 8.52

## CC[C@@H](C)[C@@H](N)C(=O)N[C@@H](CC(C)C)C(=O)N[C@@H](CCCNC(=N)N)C(=O)N[C@@H](Cc1c[nH]c2ccccc12)C(=O)N[C@@H](CO)C(=O)N[C@@H](CCCNC(=N)N)C(=O)N[C@@H](CCCCN)C(=O)N[C@@H](CCCCNC(=O)CN1CCN(CC(=O)O)CCN(CC(=O)O)CCN(CC(=O)O)CC1)C(N)=O [[^177Lu]Lu-DOTA-K-JM#173] [metal not drawn] (H-[dI]LRWSRKK(DOTA)-NH2)
[2]
  bound to the cell membrane (percentage of the applied radioactivity): predominantly cell-membrane bound
[5]
  total cellular uptake (in words): very similar cellular uptake in Jurkat cells
[6]; time point 0 h
  Radiochemical purity: 98 ± 1%
[6]; time point 1 h
  Radiochemical purity: 95 ± 0%
[6]; time point 2 h
  Radiochemical purity: 94 ± 0%
[6]; time point 4 h
  Radiochemical purity: 88 ± 3%
[6]; time point 24 h
  Radiochemical purity: 66 ± 0%
[3]
  log DO/PBS pH7.4: −2.72 ± 0.22
[3]; listed as [^177Lu]Lu-DOTA-K-JM #173
  log DO/PBS pH7.4: −2.72±0.22
